# From PubChem BioAssay AID1745853 (National Center for Advancing Translational Sciences (NCATS), 2022)
# This is one part of the list. The main result of the screen is listed elsewhere. These columns were measured beside it and carry no call.
# What was measured:
# Experiment in all cases: Primary Screen for Target Class Profiling of Small Molecule Inhibitors of Methyltransferases
# [1] = biological target: Glycine N-methyltransferase (Homo sapiens) (UniProt Q14749); conditions: purified enzyme, MTase-Glo SAH luminescence; measured here: GNMT inhibition; at 40 µM; stronger effect = lower value
# In short: (§1)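 Each enzyme was reacted with SAM and its substrate, with compounds tested once at 40 uM; SAH formed was read by MTase-Glo luminescence.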
# [2] = biological target: Guanidinoacetate N-methyltransferase (Homo sapiens) (UniProt Q14353); conditions: purified enzyme, MTase-Glo SAH luminescence; measured here: GAMT inhibition; at 40 µM; stronger effect = lower value
# In short: as §1
# [3] = biological target: Histamine N-methyltransferase (Homo sapiens) (UniProt P50135); conditions: purified enzyme, MTase-Glo SAH luminescence; measured here: HNMT inhibition; at 40 µM; stronger effect = lower value
# In short: as §1
# [4] = biological target: Nicotinamide N-methyltransferase (Homo sapiens) (UniProt P40261); conditions: purified enzyme, MTase-Glo SAH luminescence; measured here: NNMT inhibition; at 40 µM; stronger effect = lower value
# In short: as §1
# [5] = biological target: Phenylethanolamine N-methyltransferase (Homo sapiens) (UniProt P11086); conditions: purified enzyme, MTase-Glo SAH luminescence; measured here: PNMT inhibition; at 40 µM; stronger effect = lower value
# In short: as §1
# On the % scale 0 is the no-effect control and ±100 the full control effect.
Compound,"activity change, negative = inhibition [1] [%]","activity change, negative = inhibition [2] [%]","activity change, negative = inhibition [3] [%]","activity change, negative = inhibition [4] [%]","activity change, negative = inhibition [5] [%]"
CSc1ccc(CCNC(=O)Cn2ccc3cc(S(=O)(=O)N4CCCC4)ccc32)cc1,0.503,3.72,0.602,-5.64,-0.503
Cc1ccccc1/C=C/C1=NCCN1,-16.9,5.99,-9.21,-7.47,1.32
CS(=O)(=O)c1cnc(NCCn2ccnc2)nc1C1CCCNC1 (configuration not stated),-5.77,-2.75,-3.92,-8.76,-9.17
Cc1ccc(C)c(CN2CC(=O)N(Cc3ccc(Cl)cc3)c3ccccc3S2(=O)=O)c1,15.1,2.72,12.1,6.58,9.79
CC(C)c1cc(C(=O)N2CCn3nc(C(=O)Nc4ccccc4)cc3C2)n[nH]1,-7.27,-8.16,-3.99,-8.51,-18.3
COc1ccc(NC(=O)CCc2nnc3n(Cc4ccc(Cl)cc4)c(=O)c4ccccc4n23)cc1OC,-5.26,0.602,-1.89,-1.25,-6.78
Cc1cc(N2C(=O)Cn3cccc3C2C(=O)NC2CCC(C)CC2)ccc1Br (configuration not stated),-3.63,7.11,0.014,-1.26,-2.92
CNC(=O)COC(=O)N1CCC(CCc2ccc(Cl)cc2)CC1,-6.08,-2.5,1.01,-15.5,-3.58
CCOc1ccc(CCNC(=O)Cn2ccc3cc(S(=O)(=O)N4CCCCC4)ccc32)cc1,-3.32,0.826,-7.63,-9.97,-8.02
Cc1nc(-c2c3n(c(=O)n(CC(=O)NCc4cccs4)c2=O)CCCCC3)no1,-2.91,0.933,1.14,-1.65,11.8
Cc1ccc(CSc2nnc3n(C)c(=O)c4ccc(C(=O)NC5CCCCC5)cc4n23)cc1,2.24,3.58,5.55,0.819,7.79
CCC[C@H](N)C(=O)N1CCC2(CCC(=O)N(Cc3cnc(C)cn3)C2)CC1,-2.92,-2.78,-2.04,-7.13,-3.24
O=c1nc2c(-c3ccccc3Cl)n[nH]n2c2ccc(Cl)cc12,-16.5,1.25,6.33,-1.61,-1.26
Cc1cccc(Cn2nc3n(C(C)C)c(=O)c4ccc(C(=O)NC5CCCCC5)cc4n3c2=O)c1,6.27,0,7.26,7.08,6.44
CC(C)OCCCn1c(=O)c2ccccc2n2c(CCC(=O)Nc3ccc(F)cc3)nnc12,-8.61,5.95,2.54,2.53,-5.59
CC(C)Cn1c(=O)c2ccccc2n2c(=O)n(Cc3c(F)cccc3Cl)nc12,2.85,0,5.46,-8.55,1.51
COC(=O)c1cc2n(n1)CC(C)(C(=O)NC1CCCCC1)N(Cc1ccccc1OC)C2=O (configuration not stated),5.65,6.94,11.5,2.81,4.25
NC1(c2ccc(-c3nc4ccn5c(=O)[nH]nc5c4cc3-c3ccccc3)cc2)CCC1,-92.9,2.82,-32.5,-36.7,-15.8
CCC(C)NC(=O)c1ccc2c(=O)n(C(C)C)c3nn(Cc4ccccc4C)c(=O)n3c2c1 (configuration not stated),-0.228,0,-1.66,1.39,1.26
CCN(CC)CCCS(=O)(=O)N[C@H](CCc1ccccc1)c1nc(Cc2ccc(Br)cc2)no1,1.96,15.7,-1.95,-0.727,4.4

Compound,"activity change, negative = inhibition [1] [%]","activity change, negative = inhibition [2] [%]","activity change, negative = inhibition [3] [%]","activity change, negative = inhibition [4] [%]","activity change, negative = inhibition [5] [%]"
COc1ccc2cc3n(c2c1)CC(C)(C(=O)NC1CCCCC1)N(CCN1CCN(C)CC1)C3=O (configuration not stated),3.23,-1.61,3.09,2.19,-1.89
C[C@@H]1C/C=C/C=C\C=C\C=C\[C@H](O[C@@H]2O[C@H](C)[C@@H](O)[C@H](N)[C@@H]2O)C[C@@H]2O[C@](O)(C[C@@H](O)C[C@H]3O[C@@H]3/C=C/C(=O)O1)C[C@H](O)[C@H]2C(=O)O,2.26,,0.142,,
CCC[C@H](N[C@@H](C)C(=O)N1[C@H](C(=O)O)C[C@@H]2CCCC[C@@H]21)C(=O)O,0.689,-7.42,-1.96,-15,-8.01
CC(C)NS(=O)(=O)c1ccc2[nH]c(=O)[nH]c2c1,6.19,0.187,4.93,-2.14,-1.34
COc1ccc(NC(=O)CSc2nnc3n(CCC(C)C)c(=O)c4ccccc4n23)cc1,-0.207,0,11.7,-7.07,7.42
O=C1NC(=O)/C(=C/c2ccc(-c3ccc(F)cc3O)o2)S1,-52.7,-5.68,-6.11,-10.2,-2.28
COc1cccc2nc(-c3cccs3)nc(NN3C(=O)C=C(C)C3=O)c12,-19.8,-11,-5.29,-25.9,-10.1
CC(C)CCNC(=O)Cn1ccc2cc(S(=O)(=O)N3CCCCC3)ccc21,3.86,1.45,3.52,0.929,-0.554
O=C(NC1Cc2ccccc2N(C[C@@H](O)CO)C1=O)c1cc2cc(Cl)sc2[nH]1 (some centres not stated),3.39,6.81,6.01,-12.1,-1.84
Cc1cccnc1NCCNC(=O)c1ccc(S(N)(=O)=O)cc1,-0.455,-2.89,1.21,1.34,-3.21
CC(C)C1CN(c2ccc(C#N)cn2)CCC(=O)N1Cc1ccc(F)cc1 (configuration not stated),-1.25,-0.155,-2.42,-2.58,-1.99
COc1ccc(C(=O)NCc2cc(C(C)C)no2)cc1OC1CCN(C)CC1,0.737,-0.152,-14.2,-14.2,2.2
O=C(c1ccc(Cl)cc1)N1CC2(CCCN2C2COC2)Cc2ccccc21 (configuration not stated),-5.22,-4.04,-3.77,-5.19,0.88
c1ccc(CN2CCc3[nH]cnc3C2c2ccc(-c3ccccn3)cc2)nc1 (configuration not stated),-6.93,-4.49,-14.6,-10.7,2.87
C1CCC(c2noc(COCC3CC3)n2)NC1 (configuration not stated),-2.71,-2.93,-1.86,-4.29,-4.77
COc1nccnc1NC1CCN(C(=O)c2cccc(C)c2)CC1,-5.22,-2.64,-1.84,-2.99,0.382
Cn1c(=O)n(C)c2cc(S(=O)(=O)N3CCN(c4ccc(F)cc4)CC3)ccc21,-10.3,0,-11.2,-11.7,-11.9
Cc1nc(C)c(C(=O)N2CCCC2c2nc(CCOCC3CCCC3)no2)s1 (configuration not stated),-1.74,-0.229,2.43,-2.6,2.7
Cc1ccccc1CN1CC2(COCC1=O)CN(c1ccc(C(F)(F)F)cn1)C2,-11.6,3.1,1.94,-7.59,1.2
